IC50 is the fitted dose that halves viability relative to control wells, and lower means more sensitive; a limit (>, <) means that the fit lies beyond the doses tested. AUC sums up the same curve from the lowest dose to the 256-fold higher top dose: 1 means no effect, lower means more sensitive. For part of these data: An inferred top dose was derived from the fitted curves, not read from the paper. For part of these data: Where an entry number is given, a second screen of the drug exists; the two often differ.
Experiments:
Assay in all cases: Viability of human cancer cell lines after 72 h of drug (GDSC screen)
CUDC-101 = compound: C#Cc1cccc(Nc2ncnc3cc(OC)c(OCCCCCCC(=O)NO)cc23)c1 [CUDC-101]; conditions: top dose 5.12 µM; top dose inferred
Experimental: (§1)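 Human cancer cell lines in 384-well plates, medium with 10% serum, drug for 72 h over a 256-fold dose range (nine 2-fold or five 4-fold steps up to the top dose). Adherent lines were fixed and stained with the nucleic acid dye Syto60, suspension lines read with resazurin; signal relative to control wells, capped at 0 and 100%. One two-parameter sigmoid per drug and line, fitted in a mixed model over all curves with the slope shared within a line.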

5-Fluorouracil = compound: O=c1[nH]cc(F)c(=O)[nH]1 [5-Fluorouracil]; conditions: top dose 32 µM; top dose inferred
Experimental: as §1

QS11 = compound: OC[C@H](Cc1ccccc1)Nc1nc(Oc2ccc3c(c2)CCC3)nc2c1ncn2Cc1ccc(-c2ccccc2)cc1 [QS11]; conditions: top dose 10.24 µM
Experimental: as §1

AC220 = compound: CC(C)(C)c1cc(NC(=O)Nc2ccc(-c3cn4c(n3)sc3cc(OCCN5CCOCC5)ccc34)cc2)no1 [AC220]; conditions: top dose 1.024 µM; top dose inferred
Experimental: as §1

OSU-03012 = compound: NCC(=O)Nc1ccc(-n2nc(C(F)(F)F)cc2-c2ccc3c(ccc4ccccc43)c2)cc1 [OSU-03012]; conditions: top dose 16 µM; top dose inferred
Experimental: as §1

RDEA119 = compound: COc1cc(F)c(F)c(Nc2ccc(I)cc2F)c1NS(=O)(=O)C1(C[C@H](O)CO)CC1 [RDEA119]; conditions: top dose 5 µM, top dose inferred
Experimental: as §1

JNK-9L = compound: Fc1cc(-c2ccnc(Nc3ccc(-n4cnc(N5CCOCC5)n4)cc3)n2)cc(N2CCOCC2)c1 [JNK-9L]; conditions: top dose 5.12 µM; top dose inferred
Experimental: as §1

Row | Cell Line | AUC (CUDC-101) | IC50 (CUDC-101) [µM] | AUC (5-Fluorouracil) | IC50 (5-Fluorouracil) [µM] | AUC (QS11) | IC50 (QS11) [µM] | AUC (AC220) | IC50 (AC220) [µM] | AUC (OSU-03012) | IC50 (OSU-03012) [µM] | AUC (RDEA119; screen: GDSC drug entry 1014) | IC50 (RDEA119; screen: GDSC drug entry 1014) [µM] | AUC (RDEA119; screen: GDSC drug entry 1526) | IC50 (RDEA119; screen: GDSC drug entry 1526) [µM] | AUC (JNK-9L) | IC50 (JNK-9L) [µM]
1 | NCI-H2291 (lung adenocarcinoma, adherent) | 0.981 | > 5.12 | 0.984 | > 32 | 0.984 | > 10.2 | 0.952 | > 1.02 | 0.982 | > 16 | 0.542 | 0.426 | 0.401 | 0.15 | 0.983 | > 5.12
2 | NCI-H1304 (small cell lung carcinoma, suspension) | 0.77 | 2.09 | 0.984 | > 32 | 0.906 | > 10.2 | 0.978 | > 1.02 | 0.782 | 7.22 | 0.986 | > 5 | 0.978 | > 5 | 0.719 | 1.41
3 | JAR (urogenital system, adherent) | 0.615 | 0.658 | 0.942 | > 32 | 0.988 | > 10.2 | 0.988 | > 1.02 | 0.979 | > 16 | 0.973 | > 5 | 0.986 | > 5 | 0.854 | 3.93
4 | L-1236 (Hodgkin lymphoma, suspension) | 0.492 | 0.305 | 0.953 | > 32 | 0.987 | > 10.2 | 0.992 | > 1.02 | 0.973 | > 16 | 0.967 | > 5 | 0.981 | > 5 | 0.76 | 1.54
5 | LB831-BLC (bladder, adherent) | 0.604 | 0.622 | 0.928 | > 32 | 0.987 | > 10.2 | 0.987 | > 1.02 | 0.851 | 12.6 | 0.872 | 4.87 | 0.926 | > 5 | 0.521 | 0.366
6 | LNCaP-Clone-FGC (prostate, adherent) | 0.406 | 0.17 | 0.758 | 12.6 | 0.851 | 9.57 | 0.94 | > 1.02 | 0.839 | 13.2 | 0.984 | > 5 | 0.979 | > 5 | 0.579 | 0.544
7 | NCI-H1755 (lung adenocarcinoma, adherent) | 0.391 | 0.152 | 0.981 | > 32 | 0.942 | > 10.2 | 0.962 | > 1.02 | 0.965 | > 16 | 0.876 | > 5 | 0.844 | 4.46 | 0.664 | 0.985
8 | SW626 (ovary, adherent) | 0.857 | > 5.12 | 0.8 | 18.9 | 0.831 | 8.24 | 0.96 | > 1.02 | 0.613 | 2.17 | 0.509 | 0.333 | 0.722 | 1.51 | 0.661 | 0.983
9 | HEC-1 (endometrium, adherent) | 0.676 | 0.969 | 0.989 | > 32 | 0.958 | > 10.2 | 0.987 | > 1.02 | 0.715 | 3.94 | 0.948 | > 5 | 0.979 | > 5 | 0.691 | 1.08
10 | MSTO-211H (mesothelioma, adherent) | 0.822 | 2.62 | 0.988 | > 32 | 0.99 | > 10.2 | 0.991 | > 1.02 | 0.99 | > 16 | 0.83 | 2.74 | – | – | 0.805 | 2.3
11 | CA46 (Burkitt lymphoma, suspension) | 0.149 | 0.0235 | 0.776 | 13.7 | 0.924 | > 10.2 | 0.928 | > 1.02 | 0.743 | 5.27 | 0.985 | > 5 | 0.965 | > 5 | 0.514 | 0.35
12 | huH-1 (liver, adherent) | 0.978 | > 5.12 | 0.984 | > 32 | 0.984 | > 10.2 | 0.984 | > 1.02 | 0.869 | > 16 | 0.879 | > 5 | 0.905 | > 5 | 0.771 | 2.43
13 | LN-18 (glioma, adherent) | 0.797 | 1.91 | 0.991 | > 32 | 0.949 | > 10.2 | 0.994 | > 1.02 | 0.855 | 9.09 | 0.911 | 4.73 | 0.973 | > 5 | 0.567 | 0.47
14 | LU-65 (large cell lung carcinoma, suspension) | 0.609 | 0.677 | 0.745 | 11.6 | 0.934 | > 10.2 | 0.978 | > 1.02 | 0.847 | 15.1 | 0.987 | > 5 | 0.98 | > 5 | 0.764 | 2.18
15 | RO82-W-1 (thyroid, adherent) | 0.576 | 0.546 | 0.967 | > 32 | 0.952 | > 10.2 | 0.982 | > 1.02 | 0.872 | > 16 | 0.925 | > 5 | 0.802 | 3.3 | 0.821 | 4.09
16 | COLO-320-HSR (large intestine, suspension) | 0.739 | 1.38 | 0.884 | 26.8 | 0.897 | 9.72 | 0.987 | > 1.02 | 0.73 | 4.06 | 0.991 | > 5 | 0.991 | > 5 | 0.589 | 0.541
17 | SF295 (glioma, adherent) | 0.675 | 1.03 | 0.906 | > 32 | 0.703 | 2.51 | 0.98 | > 1.02 | 0.618 | 2.17 | 0.934 | > 5 | 0.853 | 4.41 | 0.546 | 0.432

— the supplement of paper PMC4967469
